# In all, about 310,000 compounds went through this assay and about 2,200 (0.71%) showed an effect of 50% or more. Effects have a minus sign here. The list shows a part of the results.
# Target: human ether-à-go-go-related gene (hERG) potassium channel (human, UniProt Q12809)
# Test: primary screen, population patch clamp on CHO cells stably expressing hERG
# Sequence of human ether-à-go-go-related gene (hERG) potassium channel (Q12809 whole entry, looked up): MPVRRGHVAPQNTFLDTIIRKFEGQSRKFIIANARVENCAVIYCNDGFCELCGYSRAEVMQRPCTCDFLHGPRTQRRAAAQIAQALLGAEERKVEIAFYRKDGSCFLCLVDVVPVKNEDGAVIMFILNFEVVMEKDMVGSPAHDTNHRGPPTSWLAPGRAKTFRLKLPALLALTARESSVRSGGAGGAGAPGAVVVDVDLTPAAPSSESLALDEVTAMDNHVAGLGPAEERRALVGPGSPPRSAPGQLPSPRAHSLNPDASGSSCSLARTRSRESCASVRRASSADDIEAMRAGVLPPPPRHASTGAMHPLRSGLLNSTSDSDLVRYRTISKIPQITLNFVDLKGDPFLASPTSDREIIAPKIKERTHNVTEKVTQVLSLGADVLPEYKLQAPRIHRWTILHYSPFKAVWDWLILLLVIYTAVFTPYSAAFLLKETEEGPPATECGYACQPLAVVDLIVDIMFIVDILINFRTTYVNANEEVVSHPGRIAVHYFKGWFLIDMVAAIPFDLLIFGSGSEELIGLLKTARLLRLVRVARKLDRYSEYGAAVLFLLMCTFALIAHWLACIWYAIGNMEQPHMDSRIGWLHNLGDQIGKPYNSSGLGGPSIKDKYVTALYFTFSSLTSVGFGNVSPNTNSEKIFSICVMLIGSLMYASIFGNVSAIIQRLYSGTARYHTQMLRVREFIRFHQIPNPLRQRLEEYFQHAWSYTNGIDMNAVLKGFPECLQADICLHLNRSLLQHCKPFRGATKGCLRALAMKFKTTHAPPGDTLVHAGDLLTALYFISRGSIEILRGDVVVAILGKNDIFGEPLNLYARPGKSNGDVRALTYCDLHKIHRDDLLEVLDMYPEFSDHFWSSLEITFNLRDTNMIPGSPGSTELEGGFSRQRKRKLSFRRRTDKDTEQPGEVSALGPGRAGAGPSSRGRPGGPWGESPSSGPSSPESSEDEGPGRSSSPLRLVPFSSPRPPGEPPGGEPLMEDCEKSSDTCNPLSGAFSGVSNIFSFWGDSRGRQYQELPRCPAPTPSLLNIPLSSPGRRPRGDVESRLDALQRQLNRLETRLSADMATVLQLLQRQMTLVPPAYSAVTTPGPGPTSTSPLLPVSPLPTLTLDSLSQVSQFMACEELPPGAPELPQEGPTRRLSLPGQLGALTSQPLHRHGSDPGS
row,SMILES,"hERG current change (%, negative = inhibition) at 1uM [%]"
1,CC(=O)Nc1ccc2c(c1)nc(CCN1CCOCC1)n2C,8.26
2,CC(C)c1nnc(SCc2ccc(CSc3nnc(C(C)C)n3N)cc2)n1N,0.868
3,COC(=O)[C@@H](N)Cc1ccc(O)c(O)c1.Cl,18.7
4,CCCCn1nnnc1SCC(=O)c1ccc(C)c(C)c1,10.5
5,CC1=C(C(=O)Nc2cccnc2)C(c2ccncc2)n2nnnc2N1 (stereo not shown),7.41
6,C=C1CCN(C(Cc2ccccc2)C(=O)OC)S(=O)(=O)c2ccc(F)cc21 (stereo not shown),11.3
7,COC(=O)c1ccccc1Oc1cnc2ccccc2n1,14.6
8,CCOc1cc(C(=O)Nc2ccc(S(=O)(=O)Nc3cc(C)on3)cc2)cc(OCC)c1OCC,1.51
9,CCCCOc1ccc(CN2CCN(CC)CC2)cc1,3.98
10,CC1CC(C)CN(C(=O)CN2C(=O)NC(c3ccccc3)(c3ccccc3)C2=O)C1 (stereo not shown),5.62
11,Cc1ccc(S(=O)(=O)N2[C@@H](c3ccccc3F)C(C(=O)O)=CC[C@H]2c2ccc(C(C)C)cc2)cc1,13.8
12,O=C(O)c1ccc2ncc(NC(=O)c3ccc(F)cc3)c(=O)n2c1,13
13,CCC(=O)OCC(=O)c1cc(C)n(-c2ccc(Br)cc2)c1C,7.37
14,CCCCn1c(=O)c(C(=O)Nc2ccsc2C(=O)OC)c(O)c2ccccc21,-3.65
15,CCSc1nc(=O)n(-c2ccccc2)c(C)c1C(C)=O,-1.68
16,CCn1c(SCC(=O)OC)nnc1-c1ccc(C)cc1,3.45
17,COc1ccc(CN2CN(C3CCCC3)CSC2=S)cc1,4.84
18,CC(C)Cc1ccc(C(C)NC(=O)Cc2ccc(S(=O)(=O)N3CCOCC3)s2)cc1 (stereo not shown),8.69
19,Clc1ccc(NCc2nnc3n2CCCCC3)cc1,6.07
20,Cc1cc(C)c2c(N)c(C(=O)C(C)(C)C)sc2n1,14.7
21,COc1cccc(/C=N/NC(=O)C(=O)N2CCCCCC2)c1O,12.9
22,CCOC(=O)c1c(NC(=O)CN2CCN(C(=O)c3ccco3)CC2)sc2c1CCCC2,2.03

row,SMILES,"hERG current change (%, negative = inhibition) at 1uM [%]"
1,COc1ccccc1C(O)c1nccn1C (stereo not shown),13.3
2,CCOc1ccc(NC(=O)c2ccc(NC(=O)COC(=O)Cc3ccccc3)cc2)cc1,15.8
3,Cc1ccc(S(=O)(=O)N(C)C)cc1NC(=O)CN1C(=O)NC2(CCCCCCC2)C1=O,15.6
4,COc1ccc(CC(=O)Nc2ccc(S(=O)(=O)Nc3nc(C)cc(C)n3)cc2)cc1,-3.72
5,Cn1c(=O)[nH]c(=O)c2c1nc(N1CCN(CCO)CC1)n2Cc1ccccc1Cl,4.6
6,O=C(CSc1nc2ccsc2c(=O)n1CC1CCC(C(=O)O)CC1)c1ccc(Cl)cc1 (stereo not shown),20.9
7,COC(=O)c1sc(NC(=O)COc2cccnc2[N+](=O)[O-])c(C(=O)OC)c1C,10.4
8,Cn1c(=O)n(Cc2ccccc2Cl)c2ccccc21,11.1
9,CCOc1ccc(OCCCC(=O)NNC(=O)c2ccncc2)cc1,-12.5
10,CO/N=C(\c1ccccc1)c1cccnc1,11.5
11,C=CCCC(=O)N1CCC(n2nccc2NC(=O)CCCc2ccccc2)CC1,2.05
12,CCCOc1ccccc1-c1nc(SCCC(=O)O)n[nH]1,-5.67
13,O=C(NCCc1ccccc1)C1c2ccccc2C(=O)N1C1CC1 (stereo not shown),5.98
14,Cc1ccc(S(=O)(=O)N2CCN(S(=O)(=O)c3cccs3)CC2)cc1,-11.2
15,CCn1c(SCC(=O)Nc2nc(C)c(C)s2)nnc1-c1cccnc1,-6.88
16,OC1(c2ccc(Cl)cc2)CCN(Cc2cn[nH]c2-c2ccc(F)cc2)CC1,-27.2
17,C[C@@H]1CCC(=O)N(CC[C@H](N=[N+]=[N-])c2ccccc2)CC1,5.07
18,COc1cccc2cc(C(=O)Nc3cccnc3N3CCOCC3)c(=O)oc12,8.86
19,O=C(Cc1c[nH]c2ccccc12)OCCOC(=O)Cc1c[nH]c2ccccc12,15.5
20,CC(=O)C(Sc1ccc2nnc(-c3ccncc3)n2n1)C(C)=O,8.37
21,CCn1c(=S)sc2c(=O)n(CC(=O)NC(C)CCc3ccccc3)c(C)nc21 (stereo not shown),8.43
22,O=C(Nc1ccc(F)cc1F)NC1CCN(S(=O)(=O)c2ccc(F)cc2)CC1,5.5

row,SMILES,"hERG current change (%, negative = inhibition) at 1uM [%]"
1,Cc1nn(CC(=O)NCC(C)c2ccccc2)c(=O)c2cc(-c3ccccc3)nn12 (stereo not shown),30.2
2,c1ccc(CSc2ncnc3c2cnn3Cc2ccccc2)cc1,17.2
3,Cc1cc(=O)n2nc(N3CCC(C(=O)NC(C)c4ccccc4)CC3)sc2n1 (stereo not shown),10
4,C=CCC(O)(CCN1CCCCC1)c1ccccc1.Cl (stereo not shown),-0.382
5,CCOc1c2ccc(C(=O)NCc3ccco3)cc2nn1CC,12.6
6,Cc1ccc(-c2nnc(CSc3nnc(COc4ccccc4)n3-c3ccc(C)cc3)o2)cc1,12.2
7,COc1ccc2c(c1OC)C(=O)OC2Nc1ncccc1C (stereo not shown),-1.88
8,Cc1ccc(NC(=O)C(CC(C)C)NC(=O)C2CCC(C)CC2)nc1 (stereo not shown),4.68
9,CCN(CC(=O)N1CCN(Cc2ccccc2)CC1)S(=O)(=O)c1ccc(F)cc1,-9.4
10,CCN(CC)CCN(C(=O)c1ccccc1OC)c1nc2ccc(F)cc2s1.Cl,-4.16
11,O=C(c1ccc(C(F)(F)F)cc1)C1CCCN(C(=O)Cn2cncn2)C1 (stereo not shown),11.9
12,Cc1[nH]ncc1-c1ccccc1Cl,8.11
13,COc1cccc(OC)c1C(=O)OCC(=O)/C(C#N)=C(\C)N,2.37
14,Cc1ccc(/C=N/N2CCN(Cc3ccc(Cl)cc3)CC2)o1,-1.21
15,O=C(Cc1ccccc1[N+](=O)[O-])NNC(=O)c1ccncc1,1.42
16,Cc1c(OC(C)C(=O)NCc2ccncc2)ccc2c3c(c(=O)oc12)CCCC3 (stereo not shown),1.2
17,COc1ccc(S(=O)(=O)NCC(=O)NCc2cc(=O)n(C)c(=O)n2C)cc1,15.5
18,O=C(O)CCC(=O)NCc1ccc2[nH]c3c(c2c1)CCCC3,5.85
19,NCCNc1ccc([N+](=O)[O-])c2cccnc12,0.884
20,COc1ccc(C2CC(=O)c3c(C)nc(N4CCN(c5ccccc5)CC4)nc3C2)cc1 (stereo not shown),3.16
21,Cc1cc(C)c(S(=O)(=O)c2ccccc2)c(OC(=O)c2c(F)cccc2Cl)n1,14.8
22,CN1CCN(/N=C/c2nc(-c3ccc(Cl)cc3)n3ccccc23)CC1,7.72

row,SMILES,"hERG current change (%, negative = inhibition) at 1uM [%]"
1,CC(=O)Nc1ccc(S(=O)(=O)NCc2nnnn2-c2ccc(Cl)cc2)cc1,10.6
2,COc1cccc(C(=O)N2CCC(O)(c3cccnc3)CC2)c1,9.13
3,CC1(C)CNC(=O)c2sc(NC(=O)c3ccccc3Cl)nc2C1,9.87
4,COCCN(C(=O)CCc1ccccc1OC)c1nnc(-c2cccnc2)s1,7.3
5,O=C(NCc1ccccc1Cl)C1CCCN1C(=O)Nc1ccccc1 (stereo not shown),13.7
6,Cc1cc(C)cc(NC(=O)CC2NCCNC2=O)c1 (stereo not shown),18.1
7,CCc1cccc(NC(=O)Cn2c3[n+](c4ccc(C(F)(F)F)cc42)CCCCC3)c1.[Cl-],1.62
8,CC(C)OCCCN1C=C2C(=O)C(C)(OC(=O)CCc3ccccc3)C(=O)C=C2C=C1c1ccc(C#N)cc1 (stereo not shown),-18.1
9,O=C(NCc1ccccc1Cl)c1ccc(CSc2nc3ccncc3[nH]2)cc1,-0.245
10,c1cc2c(cnc3cscc32)s1,11.7
11,CN(C(=O)COC(=O)CCC(=O)c1ccccc1)c1c(N)n(Cc2ccccc2)c(=O)[nH]c1=O,9.1
12,Cc1cc(=O)oc(C)c1C(=O)NCCN(C)Cc1ccccc1,8.58
13,CN1CCc2nc(N)c(C#N)c(-c3ccccc3)c2C1,-2.89
14,CN1C(=O)C(C)(C)c2cc(S(=O)(=O)N3CCC(C(=O)NCc4ccccc4Cl)CC3)ccc21,7.64
15,CCNC(=O)C1CCN(S(=O)(=O)c2ccc(F)cc2)CC1,7.71
16,CC(C)CCOCC(O)CCC(=O)NNC(=S)Nc1ccccc1 (stereo not shown),9.68
17,CN1CCN(C(=S)NC(=O)c2ccc(-c3ccccc3)cc2)CC1,9.84
18,COc1cccc(N2CCN(Cc3ncc(-c4ccccc4)o3)CC2)c1,11.5
19,COc1ccccc1CCNC(=O)C(=O)NCC1OCCN1S(=O)(=O)c1ccc([N+](=O)[O-])cc1 (stereo not shown),-0.195
20,Cc1ccc(NC(=O)c2cccs2)cc1NC(=O)c1ccccc1Cl,13.8
21,Cc1c(C)c2ccc(O[C@@H]3O[C@H](CO)[C@H](O)[C@H](O)[C@H]3O)c(C)c2oc1=O,5.64
22,O=C(O)Cc1sc(Nc2ccccc2)nc1-c1ccc(Cl)cc1,6.57

# From PMC4336329 (PLoS ONE, 2015)
